Data on 26 molecules can be found in PubChem BioAssay AID1963576 (National Center for Advancing Translational Sciences (NCATS), 2024).

About 60 (0.1%) of roughly 46,000 compounds were called active. Inconclusive results (about 3%) are left out. Calls come from the whole dose curve; as a rule, active = well fitted inhibition curve with a large enough effect; inconclusive = small, poorly fitted or top-dose-only effect; inactive = no such curve, though single readings can be large or run the other way. The list shows a part of the results.

A short description of the experiment: Primary qHTS assay for Inhibitors of ovarian cancer metastasis using an organotypic tumor microenvironment (TME) model.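 For activity change, negative = inhibition: plate controls were DMSO wells for no effect and tomatine positive control wells for full effect.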 Note: nearly all actives have a fitted effect of over 65% in size. The following applies: SKOV3ip1-GFP adhesion/invasion on 3D omental model, fluorescence; series mostly up to 45.8 µM; activity change, negative = inhibition: at the top concentration. In a few lines:
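qHTS, 4-pt dose (0.36-46 umol/L); SKOV3ip1-GFP, 1,200 cells/well, no FBS; primary omental fibroblast/mesothelial co-culture 48 h pre-grown; 2 h RT + 16 h 37 C; PBS wash, 4% PFA; GFP count 488/509 nm.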
Take `COc1ccc(C2CC(=O)c3c([nH]c(C(=O)OCc4ccccc4)c3C)C2)cc1OC` (stereo unspecified): the “activity change, negative = inhibition” value was inactive: -8.69%.

Turning to `CCCCNC(=O)CSc1nc2n[nH]c(C)c2c(=N)n1-c1ccccc1CC`, the result was inactive.

Take `CCOc1cc(C2c3c(oc4ccc(F)cc4c3=O)C(=O)N2Cc2ccc(C)cc2)ccc1O` (stereo unspecified): the “activity change, negative = inhibition” value was inactive: -25.2%.

Consider `O=C(COc1ccccc1F)Nc1nnc(S(=O)(=O)N2CCCCCC2)s1`, for which the “activity change, negative = inhibition” value is inactive: -6.26%.

Regarding `COc1ccccc1N1CCN(C(=O)CSc2nc(-c3ccc(C(C)C)cc3)no2)CC1`, the “activity change, negative = inhibition” value is inactive: -1.3%.

On to `COc1ccc(Nc2nnc(-c3ccc(C)c(S(=O)(=O)N4CCOCC4)c3)c3ccccc23)cc1`, for which the “activity change, negative = inhibition” value is inactive: 7.69%.

Turning to `CCCCNC(=O)C1CCN(Cc2nc(-c3ccc(OC)c(OC)c3)oc2C)CC1`, the “activity change, negative = inhibition” value was inactive: 0.633%.

As for `COc1cc(Nc2ncc3c(n2)-c2ccc(Cl)cc2C(c2c(F)cccc2OC)=NC3)ccc1C(=O)O`, the “activity change, negative = inhibition” value is inactive: -9.48%.

Turning to `Cc1ccccc1Cc1c(C)nc2nc(SCC(=O)NC(C)c3ccccc3)nn2c1C` (stereo unspecified), the “activity change, negative = inhibition” value is inactive: 1.03%.

In the case of `CCOC(=O)c1c(C)oc2nc(C)nc(NCCCN3CCN(c4cccc(C)c4)C(C)C3)c12` (stereo unspecified), the “activity change, negative = inhibition” value was inactive: -6.33%.

As for `CCC1CN(C(=O)Nc2cccc3c2CCCC3)c2cc(C)ccc2O1` (stereo unspecified), the call was inactive.

In the case of `Cc1ccc(-c2noc(-c3ccc(NCC4CCCO4)c([N+](=O)[O-])c3)n2)cc1` (stereo unspecified), the “activity change, negative = inhibition” value was inactive: -0.747%.

As to `CCCCOc1cccc(C(=O)N(Cc2ccc(Cl)cc2)C2CCS(=O)(=O)C2)c1` (stereo unspecified), the “activity change, negative = inhibition” value was inactive: -0.235%.

`COc1ccc(CCNC(=O)CSc2nnc(-c3ccc(C)cc3)c(-c3ccc(C)cc3)n2)cc1OC`: the “activity change, negative = inhibition” value was inactive: 3.59%.

As to `Cc1cc(=O)[nH]c2nnc(SCCC(C)C)n12`, the “activity change, negative = inhibition” value is inactive: -5.23%.

Regarding `COc1ccccc1NC(=O)N1CC=C(c2c[nH]c3ccccc23)CC1`, the result was inactive.

Turning to `CCOc1ccc(C(=O)NCCS(=O)(=O)N2CCN(c3cccc(Cl)c3)CC2)cc1`, the “activity change, negative = inhibition” value is inactive: 0.353%.

With `CC(=O)c1ccc(N2CCN(C(=O)CS(=O)(=O)c3cccc4nsnc34)CC2)cc1`, the “activity change, negative = inhibition” value was inactive: 1.31%.

Take `COc1ccc(CNC(=O)CN(C)c2nn3c(=O)cc(C)nc3s2)cc1`: the call was inactive.

Regarding `COc1cccc(C2=NN(S(C)(=O)=O)C(c3cn(-c4ccccc4)nc3-c3cccs3)C2)c1` (stereo unspecified), the “activity change, negative = inhibition” value is inactive: 3.22%.

For the molecule `COc1ccc(-c2[nH]c(-c3ccc(OC)c(OC)c3)nc2SCC(=O)Nc2ccccc2)cc1`, the “activity change, negative = inhibition” value was inactive: 6.06%.

For the molecule `Cc1cccc(NC(=O)c2oc3ccc(S(=O)(=O)N4CCCCC4)cc3c2C)c1C`, the “activity change, negative = inhibition” value is inactive: 3.57%.

As to `COc1ccc(C(=O)c2cn(Cc3ccccc3F)c3ccc(F)cc3c2=O)cc1`, the “activity change, negative = inhibition” value is inactive: 1.75%.

With `O=C(c1cccc(Cl)c1)N1CCC(c2nc3c(nnn3Cc3ccc(F)cc3F)c(=O)[nH]2)CC1`, the “activity change, negative = inhibition” value is inactive: 2.39%.

As for `Cc1ccc(-c2nnc(Nc3ccc(Cl)cc3)c3ccccc23)cc1S(=O)(=O)NCC1CCCO1` (stereo unspecified), the “activity change, negative = inhibition” value was inactive: 7.84%.

On to `COc1cc(C(=O)Nc2ccccc2OCc2cc(=O)n3cc(C)sc3n2)cc(OC)c1OC`, for which the molecule was called inactive.
